# Reference: the supplement of paper PMC8728848
# The other results are listed elsewhere or left out.
# Columns and labels:
# Assay in all cases: glycan array binding signal (z-score within array); higher = stronger binding
# Details in all cases: glycan notation: IUPAC condensed, linker removed
# [1] = molecular target: Neu5Ac(a2-6)Gal(b1-4)GlcNAc(b1-2)Man(a1-3)[Neu5Ac(a2-6)Gal(b1-4)GlcNAc(b1-2)Man(a1-6)]Man(b1-4)GlcNAc(b1-4)GlcNAc
# Outline: (§1)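 Columns mapping to the same glycan were averaged after glycan names were converted to IUPAC-condensed notation. The data come from 3228 arrays in the Consortium for Functional Glycomics database, limited to those with an available protein sequence. Binding is reported as a within-array Z-score averaged across arrays of one protein sequence and across linkers.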
# [2] = molecular target: Neu5Ac(a2-6)Gal(b1-4)GlcNAc(b1-2)Man(a1-6)Man(b1-4)GlcNAc(b1-4)GlcNAc
# Outline: as §1
# [3] = molecular target: Neu5Ac(a2-6)Gal(b1-4)GlcNAc(b1-2)Man(a1-6)[Gal(b1-4)GlcNAc(b1-2)Man(a1-3)]Man(b1-4)GlcNAc(b1-4)GlcNAc
# Outline: as §1
# [4] = molecular target: Neu5Ac(a2-6)Gal(b1-4)GlcNAc(b1-2)Man(a1-6)[GlcNAc(b1-2)Man(a1-3)]Man(b1-4)GlcNAc(b1-4)GlcNAc
# Outline: as §1
# [5] = molecular target: Neu5Ac(a2-6)Gal(b1-4)GlcNAc(b1-2)Man(a1-6)[Man(a1-3)]Man(b1-4)GlcNAc(b1-4)GlcNAc
# Outline: as §1
# [6] = molecular target: Neu5Ac(a2-6)Gal(b1-4)GlcNAc(b1-3)Gal(b1-3)GlcNAc
# Outline: as §1
# [7] = molecular target: Neu5Ac(a2-6)Gal(b1-4)GlcNAc(b1-3)Gal(b1-4)GlcNAc
# Outline: as §1
# [8] = molecular target: Neu5Ac(a2-6)Gal(b1-4)GlcNAc(b1-3)Gal(b1-4)GlcNAc(b1-3)Gal(b1-4)GlcNAc
# Outline: as §1
# [9] = molecular target: Neu5Ac(a2-6)Gal(b1-4)GlcNAc(b1-3)Gal(b1-4)[Fuc(a1-3)]GlcNAc(b1-3)Gal(b1-4)[Fuc(a1-3)]GlcNAc
# Outline: as §1
# [10] = molecular target: Neu5Ac(a2-6)Gal(b1-4)GlcNAc(b1-3)GalNAc
# Outline: as §1
# [11] = molecular target: Neu5Ac(a2-6)Gal(b1-4)GlcNAc6S
# Outline: as §1
# Neu5Ac(a2-6)GalNAc = molecular target: Neu5Ac(a2-6)GalNAc
# Outline: as §1
# [12] = molecular target: Neu5Ac(a2-6)GalNAc(b1-4)GlcNAc
# Outline: as §1
# [13] = molecular target: Neu5Ac(a2-6)GlcNAc(b1-4)GlcNAc
# Outline: as §1
# [14] = molecular target: Neu5Ac(a2-6)GlcNAc(b1-4)GlcNAc(b1-4)GlcNAc
# Outline: as §1
# Neu5Ac(a2-8)Neu5Ac = molecular target: Neu5Ac(a2-8)Neu5Ac
# Outline: as §1
# [15] = molecular target: Neu5Ac(a2-8)Neu5Ac(a2-3)Gal(b1-4)Glc
# Outline: as §1
# [16] = molecular target: Neu5Ac(a2-8)Neu5Ac(a2-3)[GalNAc(b1-4)]Gal(b1-4)Glc
# Outline: as §1
# [17] = molecular target: Neu5Ac(a2-8)Neu5Ac(a2-8)Neu5Ac
# Outline: as §1
# [18] = molecular target: Neu5Ac(a2-8)Neu5Ac(a2-8)Neu5Ac(a2-3)Gal(b1-4)Glc
# Outline: as §1
# [19] = molecular target: Neu5Ac(a2-8)Neu5Ac(a2-8)Neu5Ac(a2-3)[GalNAc(b1-4)]Gal(b1-4)Glc
# Outline: as §1
# [20] = molecular target: Neu5Ac(a2-8)Neu5Ac(a2-8)Neu5Ac(a2-8)Neu5Ac(a2-3)[GalNAc(b1-4)]Gal(b1-4)Glc
# Outline: as §1
# [21] = molecular target: Neu5Ac(b2-6)Gal(b1-4)GlcNAc
# Outline: as §1
# Neu5Ac(b2-6)GalNAc = molecular target: Neu5Ac(b2-6)GalNAc
# Outline: as §1
# [22] = molecular target: Neu5Ac9Ac(a2-3)Gal(b1-3)GlcNAc
# Outline: as §1
# [23] = molecular target: Neu5Ac9Ac(a2-3)Gal(b1-4)GlcNAc
# Outline: as §1
# [24] = molecular target: Neu5Ac9Ac(a2-6)Gal(b1-4)GlcNAc
# Outline: as §1
# [25] = molecular target: Neu5Gc(a2-3)Gal(b1-3)GlcNAc
# Outline: as §1
# [26] = molecular target: Neu5Gc(a2-3)Gal(b1-3)[Fuc(a1-4)]GlcNAc
# Outline: as §1
# Neu5Gc(a2-3)Gal(b1-4)Glc = molecular target: Neu5Gc(a2-3)Gal(b1-4)Glc
# Outline: as §1
# [27] = molecular target: Neu5Gc(a2-3)Gal(b1-4)GlcNAc
# Outline: as §1
# [28] = molecular target: Neu5Gc(a2-3)Gal(b1-4)[Fuc(a1-3)]GlcNAc
# Outline: as §1
# [29] = molecular target: Neu5Gc(a2-6)Gal(b1-4)GlcNAc
# Outline: as §1
# Neu5Gc(a2-6)GalNAc = molecular target: Neu5Gc(a2-6)GalNAc
# Outline: as §1
# [30] = molecular target: Neu5Gc(b2-6)Gal(b1-4)GlcNAc
# Outline: as §1
binder,measurement,setting,value
"Ecp6 (Cladosporium fulvum), B3VBK9 (protein) MQSMILFAAALMGAAVNGFVLPRTDDPDCETKATDCGSTSNIKYTVVKGDTLTSIAKKFKSGICNIVSVNKLANPNLIELGATLIIPENCSNPDNKSCVSTPAEPTETCVPGLPGSYTIVSGDTLTNISQDFNITLDSLIAANTQIENPDAIDVGQIITVPVCPSSQCEAVGTYNIVAGDLFVDLAATYHTTIGQIKALNNNVNPSKLKVGQQIILPQDCKNVTTAVA",glycan array binding signal (z-score),[1],-0.085
same,glycan array binding signal (z-score),[2],-0.093
same,glycan array binding signal (z-score),[3],-0.121
same,glycan array binding signal (z-score),[4],-0.103
same,glycan array binding signal (z-score),[5],-0.101
same,glycan array binding signal (z-score),[6],-0.092
same,glycan array binding signal (z-score),[7],-0.07
same,glycan array binding signal (z-score),[8],-0.07
same,glycan array binding signal (z-score),[9],-0.087
same,glycan array binding signal (z-score),[10],-0.096
same,glycan array binding signal (z-score),[11],-0.091
same,glycan array binding signal (z-score),Neu5Ac(a2-6)GalNAc,-0.105
same,glycan array binding signal (z-score),[12],-0.063
same,glycan array binding signal (z-score),[13],-0.083
same,glycan array binding signal (z-score),[14],-0.04
same,glycan array binding signal (z-score),Neu5Ac(a2-8)Neu5Ac,-0.092
same,glycan array binding signal (z-score),[15],-0.099
same,glycan array binding signal (z-score),[16],-0.1
same,glycan array binding signal (z-score),[17],-0.1
same,glycan array binding signal (z-score),[18],-0.105
same,glycan array binding signal (z-score),[19],-0.099
same,glycan array binding signal (z-score),[20],-0.082
same,glycan array binding signal (z-score),[21],-0.088
same,glycan array binding signal (z-score),Neu5Ac(b2-6)GalNAc,-0.116
same,glycan array binding signal (z-score),[22],-0.075
same,glycan array binding signal (z-score),[23],-0.097
same,glycan array binding signal (z-score),[24],-0.084
same,glycan array binding signal (z-score),[25],-0.102
same,glycan array binding signal (z-score),[26],-0.091
same,glycan array binding signal (z-score),Neu5Gc(a2-3)Gal(b1-4)Glc,-0.066
same,glycan array binding signal (z-score),[27],-0.116
same,glycan array binding signal (z-score),[28],-0.081
same,glycan array binding signal (z-score),[29],-0.079
same,glycan array binding signal (z-score),Neu5Gc(a2-6)GalNAc,-0.11
same,glycan array binding signal (z-score),[30],-0.088
